{"source": "the antibiotic and cytotoxicity screens of Wong et al. (2023)", "note": "The other results are listed elsewhere or left out."}
{"system": "HSkMC (human skeletal muscle cells)", "test": "cytotoxicity call (relative viability < 0.9)", "conditions": "10 µM"}
{"smiles": "Cc1noc(C)c1S(=O)(=O)Nc1ccc2c(c1)CC(=O)N([C@@H](C)CO)C[C@@H](C)[C@H](CN(C)S(=O)(=O)c1cn(C)cn1)O2", "cytotoxicity call": "inactive"}
{"smiles": "CO[C@@H](CN(C)S(=O)(=O)c1ccc(F)cc1)[C@H](C)CN([C@@H](C)CO)S(=O)(=O)c1cccc(Cl)c1", "cytotoxicity call": "inactive"}
{"smiles": "C[C@@H]1CCCCO[C@H](CN(C)C(=O)Nc2ccccc2)[C@H](C)CN([C@@H](C)CO)C(=O)c2cc(NC(=O)Nc3cccc4ccccc34)ccc2O1", "cytotoxicity call": "inactive"}
{"smiles": "C[C@@H]1CN([C@H](C)CO)C(=O)c2cc(NC(=O)c3ccccc3)ccc2O[C@@H](C)CCCCO[C@@H]1CN(C)Cc1ccncc1", "cytotoxicity call": "inactive"}
{"smiles": "CN[C@@H]1[C@@H](C)O[C@@H](O[C@H]2[C@H](C)O[C@@H](O[C@@H]3/C(C)=C/C[C@@H]4C[C@@H](C[C@]5(C=C[C@H](C)[C@@H](C(C)C)O5)O4)OC(=O)[C@@H]4C=C(C)[C@@H](O)[C@H]5OC/C(=C\\C=C\\[C@@H]3C)[C@]54O)C[C@@H]2OC)C[C@H]1OC", "cytotoxicity call": "active"}
{"smiles": "C[C@@H]1CN([C@H](C)CO)C(=O)c2cccc(NC(=O)NC3CCCCC3)c2O[C@@H]1CN(C)Cc1ccc(C(F)(F)F)cc1", "cytotoxicity call": "inactive"}
{"smiles": "C[C@@H]1CN([C@H](C)CO)C(=O)c2cc(NC(=O)CCN3CCOCC3)ccc2O[C@@H]1CN(C)CC1CC1", "cytotoxicity call": "inactive"}
{"smiles": "Cc1cc(C(=O)Nc2cccc3c2O[C@@H](CN(C)C(=O)Nc2ccccc2)[C@H](C)CN([C@@H](C)CO)C3=O)n(C)n1", "cytotoxicity call": "inactive"}
{"smiles": "C[C@H](CO)N1C[C@H](C)[C@@H](CN(C)C(=O)NC2CCCCC2)Oc2ccc(NC(=O)C3CC3)cc2CC1=O", "cytotoxicity call": "inactive"}
